Experimental data from PubChem BioAssay AID686978 (National Center for Advancing Translational Sciences (NCATS), 2013).
Among all 420,000 compounds or so, about 64,000 (15%) were called active. This list was built around the results that the source calls inconclusive (neither active nor inactive); the mix of calls is not that of the screen. Calls follow the shape of the dose curve; as a rule, active = well fitted inhibition curve with a large enough effect; inconclusive = small, poorly fitted or top-dose-only effect; inactive = flat fitted curve, though single readings scatter. Potencies of inconclusive entries are left out as doubtful fits.

Test: qHTS for Inhibitors of human tyrosyl-DNA phosphodiesterase 1 (TDP1): qHTS in cells in absence of CPT; also: nearly all actives have a fitted effect of over 55% in size
Conditions: DT40 Tdp1-/- hTDP1 cells, no CPT, ATP luminescence, 48 h; activity change, negative = growth inhibition: at 46.2 µM (top of the series) unless noted
In short: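 Seeded 400 DT40-hTDP1 cells/well (vehicle DMSO, no 20 nM CPT); pinned compounds; ≥48 hr at 37 °C; CellTiter-Glo luminescence as viability measure.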
% is scaled to controls: 0 for no effect and ±100 for the full control effect; potency is read from the fitted curve at half-maximal effect; tags tell the direction and shape of the fitted curve.

**Q.** With `COc1cccc(C(=O)N2CCN(c3nc4cc(C)cc(C)c4cc3C#N)CC2)c1` as the compound, how does the Potency read?
**A.** Its Potency is active: 16.4 µM.

**Q.** For `C#Cc1ccc(NC(=O)C2(C)CCN2C(=O)c2cc(C)n(C)n2)cc1` (stereo not given), which Potency is on record?
**A.** The Potency was inconclusive [inhibitor, single point].

**Q.** For `Cc1nc(-n2nc(C)c(Cc3ccc4c(c3)OCO4)c2C)sc1C(=O)Nc1ccc(Cl)cc1`, which “activity change, negative = growth inhibition” value is on record?
**A.** The value was inactive: -29.4%.

**Q.** With `Clc1ccc(Nc2nc(NCc3ccco3)nc3nccnc23)cc1` as the compound, how does the “activity change, negative = growth inhibition” value read?
**A.** The value was inactive: -9.45%.

**Q.** With `O=C(COC(=O)c1cccc(C(F)(F)F)c1)NC(=O)NC1CCCC1` as the compound, how does the Potency read?
**A.** The Potency was inconclusive [inhibitor, partial curve].

**Q.** For `CC1(C(=O)Nc2cccnc2)Cc2c(-c3ccccc3)ccnc2O1` (stereo not given), which Potency is on record?
**A.** The Potency was inconclusive [inhibitor, single point].

**Q.** With `Cc1cccc(N2C(=O)C=CC2=O)c1` as the compound, how does the Potency read?
**A.** The Potency was active: 4.61 µM.

**Q.** Which Potency does the source give for `O=C(O)C(Cc1cc(I)c(O)c(I)c1)c1ccccc1` (stereo not given) here?
**A.** Its Potency is inconclusive [inhibitor, full curve, poor fit].

**Q.** For `Cc1ccc(-n2cnc3cc(C(=O)NCc4ccccc4Cl)ccc32)c(C)c1`, which Potency is on record?
**A.** The Potency was active: 23.1 µM.

**Q.** With `COc1ccc(N2C(=S)N=C(Nc3ccccc3)C23CCCCC3)cc1` as the compound, how does the “activity change, negative = growth inhibition” value read?
**A.** Its value is inactive: -13.6%.

**Q.** With `COc1ccccc1CNS(=O)(=O)c1ccc(-n2cccn2)cc1` as the compound, how does the Potency read?
**A.** The Potency was inconclusive [inhibitor, partial curve].

**Q.** For `O=C(Nc1ccc(N2CCOCC2)c(Cl)c1)c1cccnc1Cl`, which “activity change, negative = growth inhibition” value is on record?
**A.** The value was inactive: -26.5%.

**Q.** With `CCCCN(Cc1ccco1)C(=O)Cn1ncc2c([nH]c3ccccc32)c1=O` as the compound, how does the Potency read?
**A.** Its Potency is inconclusive [inhibitor, single point].

**Q.** Which “activity change, negative = growth inhibition” value does the source give for `CC1CCN(C(=O)COC(=O)C23CC4CC(CC(O)(C4)C2)C3)CC1` here?
**A.** Its value is inactive: 5.84%.

**Q.** With `O=C(COc1ccc(S(=O)(=O)N2CCOCC2)cc1)N1CCN(c2ccccc2)CC1` as the compound, how does the Potency read?
**A.** Its Potency is inconclusive [inhibitor, single point].

**Q.** For `CCOC(=O)c1cc(NC(=O)Nc2ccc(Br)cc2)c(C)nc1C`, which Potency is on record?
**A.** The Potency was inconclusive [inhibitor, single point].

**Q.** For `CS(=O)(=O)c1ccccc1NC(=O)COc1ccccc1C(=O)Nc1ccccc1`, which Potency is on record?
**A.** The Potency was active: 11.2 µM.

**Q.** Which Potency does the source give for `OC[C@@H]1[C@@H](c2ccccc2)C(c2ccc(F)cc2)=NN1c1ccccc1` here?
**A.** Its Potency is inconclusive [inhibitor, single point].

**Q.** Which Potency does the source give for `CCN(CC)CCN1C(=O)c2oc3ccccc3c(=O)c2C1c1ccc(C)cc1` (stereo not given) here?
**A.** The Potency was inconclusive [inhibitor, single point].

**Q.** Which Potency does the source give for `Cc1noc(C)c1C(=O)Nc1nc(-c2cc(F)ccc2F)cs1` here?
**A.** Its Potency is inconclusive [inhibitor, partial curve].
